# Experimental data as given in PubChem BioAssay AID463173 (ICCB-Longwood Screening Facility, Harvard Medical School, 2010).
# Screen size: about 52,000 compounds; about 4,300 (8.3%) were called active. No stated cut-off is given here; in the data, active means survival mostly below about 52% (no sharp cut-off); inactive means mostly above about 56%. The list shows a part of the results.
# Tested on: DeltatarO mutant
# Assay: S. aureus survival, RN4220 and DeltatarO strains – OD600, teichoic acid synthesis inhibitors, primary screen (AID 463173)
# Conditions: S. aureus RN4220 wild type/DeltatarO growth, OD600, 18 h, active compounds read low, screened at 18.75 µg/mL (by protocol)
row,Structure (SMILES),survival
1,CCOc1cc(S(=O)(=O)NC2CC2)c(OCC)cc1-n1cnnn1,inactive: 81%
2,CCCN1CC=C2C(C1)C(c1ccc(C(=O)OC)cc1)C(C#N)=C(N)C2(C#N)C#N (configuration not stated),active: 51%
3,CCOC(=O)c1c(C)oc2ccc(N(C(=O)c3ccncc3)S(=O)(=O)c3ccc(F)cc3C)cc12,inactive: 79%
4,Cc1ccc(C(C)C)cc1S(=O)(=O)Nc1ccccn1,inactive: 101%
5,O=C(Cn1c(=O)n(-c2ccccc2)c(=O)c2c3c(sc21)CCC3)c1ccc(Br)cc1,inactive: 76%
6,Cc1cccc(CS(=O)(=O)Cc2ccc(C(=O)NCc3ccc(F)cc3)o2)c1,inactive: 81%
7,COc1cccc(NC(=O)c2cnc(SCC(=O)N3CCCc4ccccc43)n(C)c2=O)c1,inactive: 68%
8,COc1ccccc1N1CCN(S(=O)(=O)c2cc(C(=O)Nc3ccc(Oc4ccccc4)cc3)ccc2F)CC1,inactive: 72%
9,COc1cccc(CNC(=O)c2nn(C)c3c2CSc2ccccc2-3)c1,inactive: 75%
10,COc1ccc(NC(=O)c2cnc3cc(C)ccn3c2=O)c(OC)c1,inactive: 101%
11,Cc1c(CN2CCCCC2)c(O)n(CCO)c(=O)c1C#N,inactive: 99%
12,Cc1ccc(C)c(CN2CCCN(Cc3ccccc3C)S2(=O)=O)c1,inactive: 87%
13,Cc1cc(C)cc(NC(=O)CN2C(=O)c3ccccc3Sc3ccc(C(=O)N4CCCC4)cc32)c1,inactive: 79%
14,O=C(CN1C(=O)CCc2cc(Br)ccc21)Nc1ccc(OC(F)(F)F)cc1,inactive: 98%
15,CCOC(=O)c1ccc(Nc2c(-c3ccc(N(C)C)cc3)nc3nc[nH]n23)cc1,inactive: 102%
16,COc1ccc(CCn2c(-c3ccco3)nc3ccccc3c2=O)cc1OC,inactive: 60%
17,COc1ccccc1NC(=O)CSc1nnc2c(n1)[nH]c1ccccc12,inactive: 77%
18,CC1C=CCC2C(=O)N(c3ccc(OC(=O)c4ccco4)cc3)C(=O)C12 (configuration not stated),inactive: 83%
19,COc1ccc(NC(=O)CN(C)S(=O)(=O)c2ccc3c(c2)CCC(=O)N3)c(OC)c1,inactive: 96%

row,Structure (SMILES),survival
1,COc1ccc(OC)c(NC(=O)Cn2c(=O)n(CC3CCCO3)c(=O)c3cc(OC)c(OC)cc32)c1 (configuration not stated),inactive: 90%
2,CCOc1ccccc1CNC(=O)CN1C(=O)CSc2ccc(S(=O)(=O)N3CCOCC3)cc21,inactive: 73%
3,Cc1ccc(CNC(=O)c2cnc(N3CCCCC3)c3ccccc23)cc1,inactive: 80%
4,CCc1ccc(NC(=O)CSc2nc3c(sc4ccccc43)c(=O)n2CCCOC)cc1,inactive: 77%
5,CCOC(=O)CNc1nc2ccccc2n2c(C)nnc12,inactive: 83%
6,O=C(c1ccc2c(c1)CCN2S(=O)(=O)c1ccccc1)N1CCN(c2cccc(Cl)c2)CC1,inactive: 45%
7,COc1ccccc1CNC(=O)CCc1c(C)nc2c(c(C)nn2-c2ccc(C)c(C)c2)c1C,inactive: 69%
8,O=C(CC1CCCCC1)Nc1cccnc1,inactive: 101%
9,CC1CCC(NC(=O)c2ccc3c(c2)N(Cc2ccccc2)C(=O)c2ccccc2S3(=O)=O)CC1 (configuration not stated),inactive: 115%
10,CC(C)(C)OC(=O)N1CCC(c2c(C(=O)NCc3ccccc3)cnn2-c2ccccc2)CC1,inactive: 102%
11,CCCCn1c(=N)c(S(=O)(=O)c2ccc(Cl)cc2)cc2c(=O)n3cccc(C)c3nc21,inactive: 76%
12,CN(c1ccccc1C(=O)N1CCN(Cc2ccc3c(c2)OCO3)CC1)S(C)(=O)=O,inactive: 85%
13,Cc1cccc(Nc2c(-c3cccs3)nc3nc(C)cc(C)n23)c1,inactive: 151%
14,O=C(NC(=O)c1ccccc1)Nc1ccc(-n2nc(C(F)(F)F)cc2C(F)(F)F)cc1,inactive: 173%
15,COc1ccc(C)cc1NC(=O)Cn1c(=O)nc(-c2ccccc2F)c2cc(Cl)ccc21,inactive: 84%
16,COC(=O)c1cc(NC(=O)C2CCCN(S(=O)(=O)c3c(C)n[nH]c3C)C2)cc(C(=O)OC)c1 (configuration not stated),inactive: 95%
17,O=c1nc2c(-c3ccc(F)cc3Cl)n[nH]n2c2ccccc12,inactive: 90%
18,CC1CCCC(NS(=O)(=O)c2cccs2)C1C (configuration not stated),inactive: 81%
19,COCc1cc(C)nc2sc(C(=O)Nc3ccc(OC(F)(F)F)cc3)c(N)c12,inactive: 77%

row,Structure (SMILES),survival
1,Cc1c(C(=O)OCC2CCCCC2)[nH]c2c1C(=O)CC(c1ccc(F)cc1)C2 (configuration not stated),inactive: 134%
2,CCSc1nc2ccc(C)cc2cc1C#N,inactive: 87%
3,Cc1ccc(C)c(OCCn2cc(C(=O)c3cccs3)c3ccccc32)c1,inactive: 70%
4,CCOC(=O)/C(C#N)=C(\O)c1ccccc1,inactive: 86%
5,O=[N+]([O-])c1ccc(S(=O)(=O)NCc2nc3cccnc3n2Cc2ccccc2Cl)cc1,inactive: 68%
6,O=C(c1ccc(F)c(F)c1)N1CCc2ccccc2C1,inactive: 75%
7,Cc1cccc(C(=O)N2CCc3cc(CNC(=O)c4ccc(Br)o4)ccc32)c1,inactive: 94%
8,CCCc1nc2nc(C)c(NS(=O)(=O)c3ccc(F)cc3)c(=O)n2[nH]1,inactive: 84%
9,COc1cc(OC)c2c(C)c(CC(=O)NCCc3ccccc3OC)c(=O)oc2c1,inactive: 70%
10,CCc1ccc(S(=O)(=O)c2cnc3ccc(OC)cc3c2N2CCCC(C)C2)cc1 (configuration not stated),inactive: 88%
11,Cc1cc(C(=O)N2CCN(c3ccc(F)cc3)CC2)c2c(C)nn(-c3cccc(Cl)c3C)c2n1,inactive: 128%
12,N#CC1=C(N)Oc2c(c(=O)oc3ccccc23)C12C(=O)Nc1ccccc12 (configuration not stated),inactive: 102%
13,COc1ccc(CNC(=O)Cn2c(=O)nc(-c3ccccc3F)c3cc(Cl)ccc32)cc1OC,inactive: 122%
14,N#Cc1cccc(Nc2ncnc3c2cnn3-c2cccc(Cl)c2)c1,inactive: 72%
15,Cc1ccc(Cl)cc1-n1ncc2c(NC3CCCCC3)ncnc21,inactive: 54%
16,O=C(CSc1nncn2c1cc1occc12)Nc1ccccc1C(F)(F)F,inactive: 74%
17,CCOC(=O)C1CCCN(S(=O)(=O)c2ccc3c(c2)CCN3C(=O)CC)C1 (configuration not stated),inactive: 94%
18,CCc1ccccc1NC(=O)CN(c1cccc(C)c1C)S(C)(=O)=O,active: 54%
19,Cc1ccc(C(=O)O)cc1-n1c(C)ccc1-c1ccccc1,inactive: 59%
